Data on 110 sequences can be found in the supplement of paper PMC7335073.

Whole data set: some 4,100 sequences, median “relative CpG methylation activity (normalised to average over all NNNCGNNN flanks)” near 0.94, cut for the highest 2% near 1.9. The list shows a part of the results.

In the assay the target is DNMT3B catalytic domain (mouse) (UniProt O88509). The assay can be described thus: relative CpG methylation activity (normalised to average over all NNNCGNNN flanks) (relative (1 = mean)); higher = more methylation of the central CpG. The note with it: system: in vitro, murine catalytic domain; CpG state: hemimethylated substrate pool; residues: 558-859. The procedure: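 Deep enzymology: a pool of dsDNA substrates with a central CpG flanked by 10 random nucleotides on each side was methylated by the murine DNMT3A or DNMT3B catalytic domain (0.8 mM SAM, 37 °C, 60 min). Methylation was then read out by hairpin ligation, bisulfite conversion and NGS. Values are the average methylation of each NNNCGNNN context (±3 flanks; the outer flanks are random and averaged over), normalised to the overall mean, so 1 = average activity.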
Sequence of UniProt O88509 (O88509 558-859): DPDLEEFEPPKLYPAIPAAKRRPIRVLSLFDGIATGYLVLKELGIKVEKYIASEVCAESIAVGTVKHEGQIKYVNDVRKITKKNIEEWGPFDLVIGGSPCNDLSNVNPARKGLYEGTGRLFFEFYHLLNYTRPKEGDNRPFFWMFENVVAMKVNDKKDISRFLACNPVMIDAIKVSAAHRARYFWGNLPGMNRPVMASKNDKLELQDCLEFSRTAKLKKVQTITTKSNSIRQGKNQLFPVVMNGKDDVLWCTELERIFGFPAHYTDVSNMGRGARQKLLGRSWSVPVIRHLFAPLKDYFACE
Turning to ATTCGGGA, the “relative CpG methylation activity” value came to 1.31.

Turning to CAGCGATG, the “relative CpG methylation activity” value is 0.82.

In the case of TCGCGGGG, the “relative CpG methylation activity” value was found to be 0.906.

As to CCCCGCTC, the “relative CpG methylation activity” value worked out at 1.04.

In the case of GCACGTAG, the “relative CpG methylation activity” value came to 0.964.

Turning to GAACGTCA, the “relative CpG methylation activity” value was found to be 1.14.

As for ACACGTGT, the “relative CpG methylation activity” value came to 0.578.

With GCGCGTTA, the “relative CpG methylation activity” value amounted to 0.587.

In the case of TTACGTGA, the “relative CpG methylation activity” value is 1.21.

For GGGCGCAC, the “relative CpG methylation activity” value amounted to 0.293.

As for AATCGCAC, the “relative CpG methylation activity” value worked out at 0.584.

As for GATCGATA, the “relative CpG methylation activity” value was determined as 1.46.

For CTTCGACG, the “relative CpG methylation activity” value came to 1.3.

For CTACGTTG, the “relative CpG methylation activity” value is 1.11.

As to GGGCGAAA, the “relative CpG methylation activity” value amounted to 0.647.

Regarding ACGCGTTA, the “relative CpG methylation activity” value stood at 0.526.

With GCACGTTT, the “relative CpG methylation activity” value turned out to be 0.645.

Turning to TGACGTCG, the “relative CpG methylation activity” value worked out at 0.815.

As for ACTCGCCA, the “relative CpG methylation activity” value was 0.675.

GGGCGAAT: the “relative CpG methylation activity” value was found to be 0.676.

With AAGCGATC, the “relative CpG methylation activity” value was determined as 1.28.

Regarding GCGCGGGT, the “relative CpG methylation activity” value worked out at 0.773.

Take TTCCGTGC: the “relative CpG methylation activity” value was 1.16.

As for TACCGTCC, the “relative CpG methylation activity” value was determined as 0.881.

Regarding CGCCGAAA, the “relative CpG methylation activity” value was 0.944.

On to CTACGTGG, for which the “relative CpG methylation activity” value was determined as 0.629.

On to ATCCGGGT, for which the “relative CpG methylation activity” value stood at 1.44.

In the case of GAACGAAC, the “relative CpG methylation activity” value is 1.48.

On to AGTCGAGG, for which the “relative CpG methylation activity” value was determined as 1.54.

GTTCGATC: the “relative CpG methylation activity” value was 1.3.

ATACGCGT: the “relative CpG methylation activity” value was 1.37.

For TATCGGAT, the “relative CpG methylation activity” value was determined as 1.18.

Take ATACGCGC: the “relative CpG methylation activity” value was 1.72.

In the case of AGTCGTTG, the “relative CpG methylation activity” value came out at 0.298.

Turning to TCTCGCTA, the “relative CpG methylation activity” value was determined as 0.714.

Regarding CGGCGCGT, the “relative CpG methylation activity” value amounted to 0.45.

Regarding CTTCGTTG, the “relative CpG methylation activity” value worked out at 0.484.

As to TACCGACT, the “relative CpG methylation activity” value was 1.16.

Turning to GCGCGGAT, the “relative CpG methylation activity” value was determined as 0.55.

For GATCGCAT, the “relative CpG methylation activity” value came to 0.361.

Regarding TAGCGGAA, the “relative CpG methylation activity” value worked out at 0.638.

Turning to TCCCGCCC, the “relative CpG methylation activity” value came out at 1.02.

Turning to GGACGGAT, the “relative CpG methylation activity” value came out at 0.599.

Take CACCGTCG: the “relative CpG methylation activity” value came to 0.457.

Turning to AGCCGTGG, the “relative CpG methylation activity” value came to 0.0208.

As for TATCGCGA, the “relative CpG methylation activity” value was 0.535.

Turning to TTCCGATC, the “relative CpG methylation activity” value came to 2.31.

For GACCGTCG, the “relative CpG methylation activity” value was 0.455.

Turning to AGCCGCAG, the “relative CpG methylation activity” value was determined as 0.211.

TCACGGTC: the “relative CpG methylation activity” value stood at 1.67.

For the sequence AATCGTCT, the “relative CpG methylation activity” value was 0.545.

On to AGGCGTCA, for which the “relative CpG methylation activity” value was 0.455.

For the sequence CTGCGGCG, the “relative CpG methylation activity” value was 1.48.

Regarding TAACGAAC, the “relative CpG methylation activity” value came to 1.67.

On to ACACGCTC, for which the “relative CpG methylation activity” value worked out at 1.37.

For CAGCGACA, the “relative CpG methylation activity” value was 0.777.

In the case of ACCCGTCG, the “relative CpG methylation activity” value came out at 0.68.

Regarding AACCGGCG, the “relative CpG methylation activity” value turned out to be 1.25.

TACCGCTG: the “relative CpG methylation activity” value turned out to be 0.389.

Take TCCCGATA: the “relative CpG methylation activity” value was 1.52.

On to CCACGCTA, for which the “relative CpG methylation activity” value was 0.915.

Consider GATCGACG, for which the “relative CpG methylation activity” value is 1.03.

With GGCCGACC, the “relative CpG methylation activity” value was found to be 0.756.

With CCTCGTCA, the “relative CpG methylation activity” value came to 0.669.

Regarding GGTCGATA, the “relative CpG methylation activity” value is 1.23.

Consider ATACGGCC, for which the “relative CpG methylation activity” value was found to be 2.01.

Consider AAACGCAA, for which the “relative CpG methylation activity” value came out at 0.87.

Turning to AGCCGATT, the “relative CpG methylation activity” value turned out to be 1.22.

For GAGCGCCG, the “relative CpG methylation activity” value came to 0.478.

On to TAACGCAA, for which the “relative CpG methylation activity” value was 0.759.

As for CCGCGTAG, the “relative CpG methylation activity” value is 0.743.

With GAACGTTA, the “relative CpG methylation activity” value worked out at 0.705.

In the case of CGACGGAA, the “relative CpG methylation activity” value turned out to be 0.669.

For the sequence GATCGGCG, the “relative CpG methylation activity” value came out at 1.55.

Regarding CTCCGGAC, the “relative CpG methylation activity” value was 1.31.

For TCTCGATA, the “relative CpG methylation activity” value came out at 1.68.

CCTCGGCA: the “relative CpG methylation activity” value is 1.55.

Regarding TCCCGGGA, the “relative CpG methylation activity” value stood at 1.4.

With CAACGGCA, the “relative CpG methylation activity” value was 1.74.

In the case of TGGCGTCG, the “relative CpG methylation activity” value is 0.6.

As to ATGCGTCT, the “relative CpG methylation activity” value worked out at 0.729.

With GATCGCAA, the “relative CpG methylation activity” value is 0.278.

As for GTTCGGCT, the “relative CpG methylation activity” value is 1.75.

For TGACGCTC, the “relative CpG methylation activity” value was 0.89.

As for GTTCGCGT, the “relative CpG methylation activity” value was 0.679.

For GAACGGAT, the “relative CpG methylation activity” value was 1.01.

As to CTACGCAA, the “relative CpG methylation activity” value was 1.33.

On to GATCGCGG, for which the “relative CpG methylation activity” value stood at 0.551.

As to GAACGTCC, the “relative CpG methylation activity” value was determined as 1.22.

For the sequence CAGCGCAG, the “relative CpG methylation activity” value was 0.337.

Consider GTACGTAG, for which the “relative CpG methylation activity” value was found to be 1.03.

As for CTCCGGTT, the “relative CpG methylation activity” value is 1.72.

Turning to CCGCGGCG, the “relative CpG methylation activity” value came to 1.28.

As for CCCCGTAT, the “relative CpG methylation activity” value came to 0.536.

GGTCGTGA: the “relative CpG methylation activity” value was 0.122.

For ATTCGATG, the “relative CpG methylation activity” value is 1.21.

GTCCGCTG: the “relative CpG methylation activity” value came to 1.02.

As to CTACGACT, the “relative CpG methylation activity” value was found to be 1.92.

With CACCGCGT, the “relative CpG methylation activity” value is 0.402.

On to CCGCGCAC, for which the “relative CpG methylation activity” value stood at 0.755.

For the sequence GACCGGCC, the “relative CpG methylation activity” value was 1.47.

Regarding AGCCGTAT, the “relative CpG methylation activity” value was 0.106.

For GATCGATG, the “relative CpG methylation activity” value is 1.14.

As to GCGCGGGG, the “relative CpG methylation activity” value was found to be 0.394.

With GAACGGTA, the “relative CpG methylation activity” value was 1.28.

Take AGTCGCAT: the “relative CpG methylation activity” value came to 0.427.

As for AAACGTCC, the “relative CpG methylation activity” value stood at 1.22.

With TACCGCAG, the “relative CpG methylation activity” value turned out to be 0.246.

For AAGCGGGT, the “relative CpG methylation activity” value turned out to be 0.581.

Take TTGCGACC: the “relative CpG methylation activity” value is 1.23.
